Experimental data reported in PubChem BioAssay AID902 (National Center for Advancing Translational Sciences (NCATS), 2007).
Out of some 130,000 compounds screened, about 1,900 (1.5%) were called active. The inconclusive results got no clear call from the source; some entries with a clear call stand among them for comparison. Calls come from the whole dose curve; as a rule, active = well fitted cell-killing curve with a large enough effect; inconclusive = small, poorly fitted or top-dose-only effect; inactive = no such curve, though single readings can be large or run the other way. A potency beside an inconclusive call is a rough fit, not a confirmed value.

Assay: qHTS Screen for Compounds that Selectively Target Cancer Cells with p53 Mutations: Cytotoxicity of p53ts Cells at the Nonpermissive Temperature; note: nearly all actives have a fitted effect of over 55% in size
Settings: H1299-p53A138V viability at 39C, ATP luminescence, 24 h; activity change, negative = cell killing: at 46.1 µM (top of the series)
% is set by controls: 0 for no effect and ±100 for the full control effect; potency is the fitted concentration of half-maximal effect; tags give direction and shape of the fitted curve.

Row | Structure (SMILES) | activity change, negative = cell killing | Potency
1 | O=C(c1cc(C(F)(F)F)cc(C(F)(F)F)c1)N1CCC2(CC1)CN(c1ncccn1)C2 | inactive: -0.976% | 
2 | C#CCSc1nc(-c2ccccc2)cc(-c2ccccc2)c1C#N | inactive: -12.1% | 
3 | S=C(Nc1ccc(Cl)c(Cl)c1)NC1CCN(Cc2ccccc2)CC1 |  | inconclusive: 12.6 µM [cytotoxic, single point]
4 | COc1cccc(N2CCN(c3ncnc4c3[nH]c3ccccc34)CC2C)c1 (stereo not given) |  | inconclusive: 15.8 µM [cytotoxic, single point]
5 | Cc1ccc2nc(-c3ccc(O)cc3)c(Nc3ccc(Cl)cc3)n2c1 |  | inconclusive: 15.8 µM [cytotoxic, single point]
6 | COc1cc(NC(=O)c2cc3c(s2)-c2ccccc2OC3)cc(OC)c1OC |  | inconclusive: 25.1 µM [cytotoxic, single point]
7 | CC(=O)c1ccc(Nc2nc3c(S(=O)(=O)c4ccccc4)nnn3c3ccc(Cl)cc23)cc1 | inactive: -16.5% | 
8 | Cc1ccc(CCNC(=O)c2c[nH]c3ccc(S(=O)(=O)Nc4ccc(C)cc4C)cc3c2=O)cc1 |  | inconclusive: 15.8 µM [cytotoxic, single point]
9 | COc1cccc(C(=O)NCC(c2ccc(N(C)C)cc2)N2CCc3ccccc32)c1 (stereo not given) |  | inconclusive: 20 µM [cytotoxic, single point]
10 | CC(=O)c1cccc(Nc2nc(-c3cccc(C)c3)nc3ccccc23)c1 |  | inconclusive: 12.6 µM [cytotoxic, single point]
11 | Cc1cc(NCCOCCO)n2ncc(-c3ccc(Cl)cc3)c2n1 |  | inconclusive: 15.8 µM [cytotoxic, partial curve]
12 | CCOc1ccc(C(=O)CCN2CCCCC2)cc1 |  | inconclusive: 25.1 µM [cytotoxic, single point]
13 | Cc1ccccc1CC1C(=O)Nc2ccc(Br)cc21 (stereo not given) |  | inconclusive: 10 µM [cytotoxic, partial curve]
14 | COc1ccc(NC(=O)CSC2=Nc3ccccc3C3=NC(CCC(=O)NCc4ccc(F)cc4)C(=O)N23)cc1Cl (stereo not given) |  | inconclusive: 12.6 µM [cytotoxic, single point]
15 | CCCCC(CC)CNC(=O)CN(C)S(=O)(=O)c1ccc2c(c1)c(=O)n(C)c(=O)n2C (stereo not given) | inactive: 0.845% | 
16 | COc1ccc(C(=O)NCC2OCCc3ccccc32)c(O)c1 (stereo not given) |  | inconclusive: 12.6 µM [cytotoxic, partial curve]
17 | C#C[C@@]1(OC(C)=O)CC[C@@H]2[C@@H]3CCC4=C[C@@H](OC(C)=O)CC[C@H]4[C@H]3CC[C@]21C | inactive: 5.44% [at 20.6 µM] | 
18 | Cc1cc(NCc2ccccc2Cl)n2cnnc2n1 | inactive: -0.221% | 
19 | Cc1cc(C(=O)COc2ncnc3sccc23)c(C)n1C1CC1 |  | inconclusive: 15.8 µM [cytotoxic, partial curve]
20 | Cc1cccc(NC(=O)c2cc(-c3ccc4c(c3)OCCO4)on2)c1 |  | active: 1 µM
21 | COC(=O)CNc1nc(-c2ccncc2)nc2ccccc12 | inactive: 9.59% | 
22 | Cc1ccc2nc(-c3ccccn3)oc2c1 |  | active: 5.01 µM
23 | Cc1cccc(-c2nnn3c2nc(NCCc2ccc(S(N)(=O)=O)cc2)c2ccccc23)c1 |  | inconclusive: 15.8 µM [cytotoxic, single point]
24 | Nc1nnc(C(=O)c2ccccc2N)s1 |  | inconclusive: 12.6 µM [cytotoxic, partial curve]

Row | Structure (SMILES) | activity change, negative = cell killing | Potency
25 | COc1ccc(Cn2c(CCC(=O)Nc3ccc(C)c(C)c3)nc3cccnc32)cc1 |  | inconclusive: 20 µM [cytotoxic, single point]
26 | CCOc1ccc2nc(N3CCCC(C(=O)NCCCOC)C3)sc2c1 (stereo not given) |  | active: 10 µM
27 | CCCC(=O)NC(c1ccco1)c1cc(Cl)c2cccnc2c1O (stereo not given) |  | inconclusive: 1 µM [cytotoxic, full curve]
28 | OC1c2ccccc2-c2nc3ccccc3cc21 (stereo not given) |  | active: 10 µM
29 | CCOC(=O)c1cnc2ccc(C(=O)OC)cc2c1Nc1ccccc1CC |  | inconclusive: 15.8 µM [cytotoxic, single point]
30 | CC(C)(C)n1cnc2cc(NCc3ccccc3Cl)ccc21 |  | inconclusive: 15.8 µM [cytotoxic, partial curve]
31 | O=C(Nc1cccnc1)c1cc(-c2ccc3c(c2)OCO3)on1 | inactive: -29.5% | 
32 | CN(C)c1ccc2nc3ccc(=[N+](C)C)cc-3sc2c1 |  | active: 3.16 µM
33 | COc1ccc(-c2cc(=O)n(-c3nc4ccccc4[nH]3)[nH]2)cc1 |  | inconclusive: 20 µM [cytotoxic, single point]
34 | CCOC(=O)c1ccc(NC(=O)C(CC)Sc2nc3ncccc3o2)cc1 (stereo not given) |  | inconclusive: 3.16 µM [cytotoxic, full curve]
35 | COc1ccc(C(=O)Nc2nc3c(s2)CCc2cc(OC)ccc2-3)cc1 |  | inconclusive: 35.5 µM [cytotoxic, single point]
36 | Cc1ccc(C)c(Nc2nn3c(=O)c4ccc(C(=O)NCCc5ccccc5)cc4nc3s2)c1 |  | active: 3.16 µM
37 | CCOC(=O)Nc1nnc(-c2ccccc2OC)s1 | inactive: -7.93% | 
38 | Cc1ccc(-c2cc(C(=O)NCc3cnn(C)c3)c3cc(Br)ccc3n2)cc1 |  | inconclusive: 7.94 µM [cytotoxic, partial curve]
39 | O=C(Nc1ccc2c(c1)ncn2-c1ccccc1)c1ccco1 |  | inconclusive: 20 µM [cytotoxic, partial curve]
40 | COc1cc(OC)c2c(OC)c(-c3ccc4c(c3)OCO4)c(=O)oc2c1 |  | inconclusive: 7.94 µM [cytotoxic, partial curve]
41 | COc1cccc(CNc2nc3c(-c4ccccc4)nnn3c3ccccc23)c1 |  | inconclusive: 6.31 µM [cytotoxic, full curve]
42 | Cc1ccc2oc(=O)c3cnn(CC(=O)N4CCN(c5cc(Cl)ccc5C)CC4)c3c2c1 |  | inconclusive: 3.98 µM [cytotoxic, single point]
43 | COc1ccc(C2=NS(=O)(=O)N(C)C(C(=O)NCc3ccccc3)=C2)cc1OC |  | inconclusive: 25.1 µM [cytotoxic, single point]
44 | COc1cccc(N2C(=O)CSC23C(=O)N(Cc2ccccc2)c2ccccc23)c1 (stereo not given) | inactive: -8.17% | 
45 | Cc1cccc(NC(=O)c2sc3nc(-c4ccc(F)cc4)cn3c2C)n1 |  | inconclusive: 15.8 µM [cytotoxic, partial curve]
46 | COCCNC(=O)c1ccc(-n2c(-c3ccccc3)cc3c2CCCCC3)cc1 |  | inconclusive: 15.8 µM [cytotoxic, single point]
47 | COc1ccc(C(=O)/C=C/c2cn(CC(O)CN(CC(C)C)CC(C)C)c3ccccc23)cc1 (stereo not given) | inactive: -13.7% | 
48 | COc1cccc(C(=O)Nc2ccc(-c3nc4ccccc4s3)cc2Cl)c1 |  | inconclusive: 3.16 µM [cytotoxic, single point]

Row | Structure (SMILES) | activity change, negative = cell killing | Potency
49 | COc1ccc(CCNC(=O)c2cc(Nc3cc(C)cc(C)c3)nc3ccccc23)cc1OC |  | inconclusive: 11.2 µM [cytotoxic, partial curve, poor fit]
50 | Cc1c(Cl)cccc1Nc1nn2c(=O)c3ccc(C(=O)NCCc4ccccc4)cc3nc2s1 |  | inconclusive: 5.01 µM [cytotoxic, full curve]
51 | CC(=O)c1cccc(NC(=O)c2cccn2-c2nnc(N3CCCCC3)s2)c1 | inactive: -10.8% | 
52 | CC(=O)Nc1sc(N/N=C\c2cccc(Cl)c2)nc1-c1cccs1 |  | inconclusive: 14.1 µM [cytotoxic, single point]
53 | O=C(OCc1nnc(-c2ccccc2)o1)c1cc(=O)c2ccccc2o1 | inactive: -3.41% | 
54 | COC(=O)c1sc2cccc(F)c2c1S(=O)(=O)N1CCN(c2ccccc2OC)CC1 |  | inconclusive: 15.8 µM [cytotoxic, single point]
55 | Cc1cc(OCCCCCNCCO)cc(C)c1Cl |  | inconclusive: 12.6 µM [cytotoxic, single point]
56 | CCc1ccc(CSc2nc(-c3ccccc3OC)nc3c2Cc2c(CO)cnc(C)c2O3)cc1 |  | inconclusive: 31.6 µM [cytotoxic, single point]
57 | Cc1cccc(CNc2nc(-c3cccc(NS(C)(=O)=O)c3)nc3ccccc23)c1 |  | inconclusive: 25.1 µM [cytotoxic, single point]
58 | CCc1ccc(NC(=O)c2cc(-c3cccs3)on2)cc1 |  | inconclusive: 12.6 µM [cytotoxic, single point]
59 | COc1ccccc1N1CCN(C(c2ccc(C)cc2)c2nnnn2C(C)C)CC1 (stereo not given) | inactive: -1.48% | 
60 | CCOC(=O)c1c(C)[nH]c(C)c1S(=O)(=O)N1CCC(C(=O)Nc2ccc(F)cc2F)CC1 | inactive: 9.3% | 
61 | CN(C)C(=O)c1ccc(-c2nc(NCc3cccs3)c3ccccc3n2)cc1 |  | inconclusive: 20 µM [cytotoxic, single point]
62 | CCn1c(=O)sc2cc(NC(=O)c3cccc(OC)c3)ccc21 |  | inconclusive: 25.1 µM [cytotoxic, single point]
63 | COc1ccc2c(c1OC)OCC(c1ccc(OC)c(OC)c1OC)C2 (stereo not given) | inactive: 5.49% | 
64 | CCOC(=O)c1sc(-c2ccc(OC)cc2)cc1N |  | inconclusive: 15.8 µM [cytotoxic, single point]
65 | N#CCSc1nnc(COc2cccc3ccccc23)n1-c1cccc(Cl)c1 |  | inconclusive: 25.1 µM [cytotoxic, single point]
66 | COc1ccc(-c2nc3cnc(N(C)C)nc3n(C3CC3)c2=O)cc1 | inactive: -28% | 
67 | COC(=O)c1ccc(C(=O)OC)c(NC(=O)N2CC3CCCN3c3ccccc32)c1 (stereo not given) | inactive: -9.73% | 
68 | CC(=O)c1ccc(NC(=O)c2ccc(NC(=O)CCS(=O)(=O)c3cccs3)cc2)cc1 |  | inconclusive: 15.8 µM [cytotoxic, partial curve]
69 | CCOC(=O)c1ccc(NC(=O)c2csc3c2CCCC3)cc1 |  | inconclusive: 31.6 µM [cytotoxic, single point]
70 | COc1ccccc1CNc1nc(-c2cccnc2)nc2ccccc12 |  | inconclusive: 31.6 µM [cytotoxic, single point]
